Reference: the supplement of paper PMC4723716
± gives the uncertainty stated by the source. In all, about 9,900 compounds were measured (“viability index relative to DMSO control”: median about 1, lowest 2% from about 0.85 on). Some of the results follow.

tested on: Plasmodium falciparum NF54 stage V gametocytes; assay: viability index relative to DMSO control (fraction); higher = less gametocyte killing; conditions: 2.5 µM, library set: Broad Institute DOS, incubation time: 72 h
Summary of the method: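 Stage V gametocytes of P. falciparum NF54 were held in serum-free screening medium at 0.75% gametocytemia and 1.25% hematocrit, 10 µl per well of a 1,536-well plate, and exposed to compound at 2.5 µM for 72 hr at 37°C under low oxygen. A 3 µl mix of 2.5 µM MitoTracker Red CMXRos with 0.13% saponin was then added for one to two hours, after which one field per well was imaged and red particles of 20–70 µm2 were counted. The viability index equals this count divided by the plate mean from wells given solvent alone.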

Compound	viability index
CN1C(=O)c2cc(NS(=O)(=O)CC(F)(F)F)ccc2OC[C@H]2O[C@@H](CC(=O)Nc3cccc(F)c3)CC[C@@H]21	1.16 ± 0.071
COc1ccc(NC(=O)N(C)C[C@H]2OCc3ccccc3-c3ccccc3C(=O)N([C@@H](C)CO)C[C@@H]2C)c(OC)c1	1.09 ± 0.092
CCS(=O)(=O)N1C[C@@]2(C1)CN([C@@H](CO)c1[nH]c3cc(OC)ccc3c21)C(=O)Cc1ccccn1	0.9811 ± 0.0084
Cc1noc(C)c1NC(=O)N(C)C[C@@H]1Oc2ccc(NC(=O)Cc3cn(C)c4ccccc34)cc2CC(=O)N([C@@H](C)CO)C[C@H]1C	0.979 ± 0.024
COc1ccc2c3c([C@@H](CO)N(CC4CC4)C[C@]33CN(C3)C(=O)Nc3ccc(F)cc3F)n(C)c2c1	0.988 ± 0.11
CN1C(=O)c2cc(NC(=O)C3CCOCC3)ccc2OC[C@@H]2O[C@@H](CC(=O)NCCc3ccncc3)CC[C@H]21	1.12 ± 0.13
CO[C@H](CN(C)S(=O)(=O)c1cccc(Cl)c1)[C@H](C)CN(C(=O)Nc1ccccc1F)[C@@H](C)CO	1.07 ± 0.064
Cc1noc(C)c1S(=O)(=O)Nc1ccc2c(c1)C(=O)N([C@@H](C)CO)C[C@H](C)[C@@H](CN(C)C(=O)NC1CCCCC1)O2	1.08 ± 0.04
CN1C(=O)c2cc(NC(=O)C3CCOCC3)ccc2OC[C@H]2O[C@@H](CC(=O)NCCc3ccncc3)CC[C@H]21	1.146 ± 0.01
COc1ccc(S(=O)(=O)N(C)C[C@H]2Oc3c(NC(=O)c4nc5ccccc5s4)cccc3C(=O)N([C@@H](C)CO)C[C@@H]2C)cc1	0.9919 ± 0.0082
CCCNC(=O)Nc1ccc2c(c1)OC[C@@H](C)N(C(=O)C1CCOCC1)C[C@@H](C)[C@@H](OC)CN(C)C2=O	1.075 ± 0.0076
CCC(=O)N1[C@H](CN(CC)C(=O)c2cccc(F)c2)[C@@H](c2ccccc2)[C@@H]1CO	1.09 ± 0.031
CCCNC(=O)C[C@@H]1CC[C@@H]2[C@H](COC[C@H](O)CN2C(=O)c2ccc(F)cc2)O1	1.03 ± 0.1
COc1ccc(C#Cc2ccc([C@H]3[C@H](CO)N4C(=O)CN(C(=O)NC(C)C)C[C@@H]34)cc2)cc1	1.087 ± 0.0045
C[C@H](CO)N1C[C@H](C)[C@H](CN(C)Cc2ccncc2)OCCCC[C@H](C)Oc2ccc(NS(=O)(=O)c3ccc(Cl)cc3)cc2C1=O	1.04 ± 0.073
COCC#Cc1ccc([C@H]2[C@@H](CO)N3C(=O)CN(C(=O)Nc4ccccc4F)C[C@H]23)cc1	1.008 ± 0.0016
N#Cc1cccc(-c2ccc([C@H]3[C@@H]4CNC[C@H]3N4)cc2)c1	1.01 ± 0.057
CO[C@@H](CN(C)C(=O)Nc1ccc(Cl)cc1)[C@H](C)CN(Cc1ccccc1Cl)[C@H](C)CO	1.07 ± 0.085
O=C(C[C@@H]1C=C[C@@H](NC(=O)c2ccncc2)[C@H](CO)O1)NCC1CC1	1.09 ± 0.067
